Assay results reported in PMC11297201.
No constants are given. Whether binding was seen depends on the method and setting. Binding seen in cells or lysates may run through a third protein. Some entries that bind do so weakly or less than the wild type.

Sequences of proteins named here, by UniProt entry; tags and fusion partners are left off.
UniProt P32121: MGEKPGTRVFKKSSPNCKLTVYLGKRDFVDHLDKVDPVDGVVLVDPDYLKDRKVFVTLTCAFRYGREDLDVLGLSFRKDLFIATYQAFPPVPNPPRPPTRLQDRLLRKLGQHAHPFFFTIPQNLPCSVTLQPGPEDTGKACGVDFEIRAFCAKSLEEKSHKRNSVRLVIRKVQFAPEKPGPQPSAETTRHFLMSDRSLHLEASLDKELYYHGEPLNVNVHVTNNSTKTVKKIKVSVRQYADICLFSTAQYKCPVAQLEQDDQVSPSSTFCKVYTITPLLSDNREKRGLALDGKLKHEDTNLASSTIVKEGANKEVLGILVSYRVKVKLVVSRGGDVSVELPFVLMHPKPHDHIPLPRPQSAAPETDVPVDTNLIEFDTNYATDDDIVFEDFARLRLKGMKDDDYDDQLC
UniProt P35626: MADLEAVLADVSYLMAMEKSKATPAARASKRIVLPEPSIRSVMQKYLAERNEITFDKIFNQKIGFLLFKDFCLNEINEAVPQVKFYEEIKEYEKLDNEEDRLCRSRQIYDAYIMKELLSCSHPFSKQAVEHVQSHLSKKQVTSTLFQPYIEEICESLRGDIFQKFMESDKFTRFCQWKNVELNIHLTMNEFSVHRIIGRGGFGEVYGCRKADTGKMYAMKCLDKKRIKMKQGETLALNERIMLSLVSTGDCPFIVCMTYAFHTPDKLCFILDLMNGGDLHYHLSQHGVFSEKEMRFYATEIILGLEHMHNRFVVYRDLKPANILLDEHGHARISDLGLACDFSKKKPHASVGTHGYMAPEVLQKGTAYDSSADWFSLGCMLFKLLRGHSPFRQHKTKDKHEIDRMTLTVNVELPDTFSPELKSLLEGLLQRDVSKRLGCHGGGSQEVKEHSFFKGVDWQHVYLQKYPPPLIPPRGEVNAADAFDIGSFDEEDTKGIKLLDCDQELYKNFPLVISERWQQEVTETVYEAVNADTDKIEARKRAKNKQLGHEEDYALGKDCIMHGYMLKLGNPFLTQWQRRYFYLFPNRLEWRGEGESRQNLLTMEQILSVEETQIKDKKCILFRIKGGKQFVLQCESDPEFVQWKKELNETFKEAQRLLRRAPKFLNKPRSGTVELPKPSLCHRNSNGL
UniProt P25098: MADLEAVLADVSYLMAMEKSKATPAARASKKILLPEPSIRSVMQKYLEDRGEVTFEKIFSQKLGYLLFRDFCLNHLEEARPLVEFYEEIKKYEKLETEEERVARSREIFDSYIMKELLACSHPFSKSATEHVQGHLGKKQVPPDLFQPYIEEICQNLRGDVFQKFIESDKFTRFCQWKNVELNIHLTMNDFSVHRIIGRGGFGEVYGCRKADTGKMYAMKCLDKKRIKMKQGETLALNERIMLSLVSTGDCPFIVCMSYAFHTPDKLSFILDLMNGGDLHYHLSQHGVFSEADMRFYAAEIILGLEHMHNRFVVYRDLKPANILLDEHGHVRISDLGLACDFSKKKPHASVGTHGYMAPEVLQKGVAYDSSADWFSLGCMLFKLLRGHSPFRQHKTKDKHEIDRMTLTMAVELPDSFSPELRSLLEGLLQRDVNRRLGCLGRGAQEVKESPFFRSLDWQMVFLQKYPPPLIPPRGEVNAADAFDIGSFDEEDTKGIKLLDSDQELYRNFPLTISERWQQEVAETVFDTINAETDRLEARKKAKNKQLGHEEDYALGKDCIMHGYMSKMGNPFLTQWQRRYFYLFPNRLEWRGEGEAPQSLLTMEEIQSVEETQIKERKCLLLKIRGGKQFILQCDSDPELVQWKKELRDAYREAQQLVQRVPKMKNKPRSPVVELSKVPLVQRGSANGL

Key:
[1] = target: Flag-mMOR-NLuc (mouse mu-opioid receptor, wild type) (mouse) (UniProt P42866); test: FRET or BRET; live ΔQ-GRK HEK293 cells overexpressing a single GRK (GRK2, GRK3, GRK5 or GRK6; for STANT-2A GRK2 or GRK5); MOR-Nluc donor, β-arrestin2-Venus acceptor; DAMGO, fentanyl or morphine 10 min at 37 °C
[2] = target: Flag-mMOR-NLuc (mouse mu-opioid receptor, wild type) (mouse) (UniProt P42866); test: FRET or BRET; live control HEK293 cells with endogenous GRKs; Flag-mMOR-Nluc donor, β-arrestin2-Venus acceptor; morphine 10 min at 37 °C
[3] = target: Flag-mMOR-NLuc (mouse mu-opioid receptor, wild type) (mouse) (UniProt P42866); test: condition: only in ΔQ-GRK cells (GRK2/3/5/6 knocked out); FRET or BRET; live ΔQ-GRK HEK293 cells (GRK2/3/5/6 knocked out); Flag-mMOR-Nluc donor, β-arrestin2-Venus acceptor; DAMGO, fentanyl or morphine 10 min at 37 °C
[4] = target: Flag-mMOR-NLuc (mouse mu-opioid receptor, wild type) (mouse) (UniProt P42866); test: FRET or BRET; live HEK293 cells with endogenous GRKs (control; also ΔGRK2/3 and ΔGRK5/6 cells); Flag-mMOR-Nluc donor, β-arrestin2-Venus acceptor; DAMGO or fentanyl (for the STANT-2A mutant also morphine) 10 min at 37 °C in HBSS pH 7.4; baseline-corrected BRET ratio
[5] = target: Flag-mMOR-NLuc (mouse mu-opioid receptor, wild type) (mouse) (UniProt P42866); test: FRET or BRET; live transfected HEK293 cells (cell line not stated); MOR-Nluc (WT or STANT-2A) donor, GRK-YFP acceptor; vehicle, DAMGO, fentanyl or morphine 10 min at 37 °C; raw BRET ratio at 10 µM and concentration response curves
[6] = target: mMOR STANT-2A (Flag-mMOR-NLuc with Thr376Ala and Thr379Ala) (mouse) (UniProt P42866); test: as above

Substance	binding [1]	binding [2]	binding [3]	binding [4]	binding [5]	binding [6]
β-arrestin2-Venus (from UniProt P32121 1-409)	binds	binds weakly	no binding	binds	–	–
GRK3-YFP (human) (from UniProt P35626 1-688) (enzyme)	–	–	–	–	binds	binds
GRK2-YFP (human) (from UniProt P25098 1-689) (enzyme)	–	–	–	–	binds	binds
